{"source": "PubChem BioAssay AID1468", "about": "(National Center for Advancing Translational Sciences (NCATS), 2008)", "note": "Several values for one entry are separate records, joined by “and”; a condition that tells them apart may be missing. Identical values can stand only once. The whole screen tested about 280,000 compounds, of which about 1,100 (0.39%) were called active. The inconclusive results got no clear call from the source; some entries with a clear call stand among them for comparison. The call rests on the fitted dose curve; in most records, active means well fitted inhibition curve with a large enough effect; inconclusive means small, poorly fitted or top-dose-only effect, or effect the other way; inactive means flat fitted curve, though single readings scatter. Potencies beside an inconclusive call are fits to weak or partial responses and may not hold up.", "data": [{"target": "Microtubule-associated protein tau (Homo sapiens) (UniProt P10636)", "sequence (P10636 whole entry, looked up)": "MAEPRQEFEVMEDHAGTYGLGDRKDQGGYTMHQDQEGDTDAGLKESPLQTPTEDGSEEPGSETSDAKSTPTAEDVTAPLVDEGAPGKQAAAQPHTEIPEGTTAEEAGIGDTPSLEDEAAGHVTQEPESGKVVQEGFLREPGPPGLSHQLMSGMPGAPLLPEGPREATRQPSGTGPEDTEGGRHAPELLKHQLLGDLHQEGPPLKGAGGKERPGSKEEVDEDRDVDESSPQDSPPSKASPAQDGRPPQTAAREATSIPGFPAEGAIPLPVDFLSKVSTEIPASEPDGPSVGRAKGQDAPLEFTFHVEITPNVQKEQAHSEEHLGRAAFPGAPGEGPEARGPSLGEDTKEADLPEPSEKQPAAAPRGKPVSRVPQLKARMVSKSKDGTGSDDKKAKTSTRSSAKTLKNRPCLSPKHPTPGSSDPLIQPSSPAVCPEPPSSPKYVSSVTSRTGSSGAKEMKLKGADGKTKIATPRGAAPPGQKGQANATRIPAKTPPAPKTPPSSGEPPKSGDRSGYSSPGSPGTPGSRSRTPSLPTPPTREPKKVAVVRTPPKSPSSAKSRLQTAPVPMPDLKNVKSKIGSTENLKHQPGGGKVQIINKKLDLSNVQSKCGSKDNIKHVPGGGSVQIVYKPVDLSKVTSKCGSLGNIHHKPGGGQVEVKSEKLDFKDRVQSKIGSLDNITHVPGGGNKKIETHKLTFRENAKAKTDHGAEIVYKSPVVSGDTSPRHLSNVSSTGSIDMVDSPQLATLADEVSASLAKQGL", "experiment": "qHTS for Inhibitors of Tau Fibril Formation, Fluorescence Polarization; further: nearly all actives have a fitted effect of over 55% in size; further: potency means the concentration at half of the fitted maximal effect; tags describe the fitted curve by direction and shape; on activity, negative = inhibition: on the % scale 0 is the no-effect control and ±100 the full control effect", "conditions": "K18 P301L tau heparin fibrillization, Alexa594 FP, 6 h; series mostly up to 57.7 µM", "method_in_brief": "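FP of Alexa 594-tau after heparin (20 uM) induction. Substrate: human K18 P301L, 15 uM unlabeled, 0.24 uM labeled. Buffer 100 mM sodium acetate pH 7. 6 hr, 37 C.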", "values": [{"molecule": "Cc1cccc(OCC(=O)NC(Cc2c[nH]c3ccccc23)C(=O)O)c1C", "note": "(stereo not given)", "Potency": "inactive"}, {"molecule": "CC1=C(C(=O)Nc2ccc(Cl)cc2)C(c2ccccc2C)n2ncc(C(=O)Nc3ccc(C)cc3)c2N1", "note": "(stereo not given)", "Potency": "inconclusive: 28.2 µM [inhibitor, partial curve]"}, {"molecule": "O=C(Nc1cccc(Cl)c1)Nc1ccc(Br)cc1F", "Potency": "inconclusive: 11.2 µM [inhibitor, partial curve]"}, {"molecule": "COc1cccc(NC(=O)Nc2nnc(-c3ccccc3SCc3ccccc3)s2)c1", "Potency": "inconclusive: 12.6 µM [inhibitor, partial curve]"}, {"molecule": "O=S(=O)(C/C(=C/CO)S(=O)(=O)c1ccccc1)c1ccccc1", "Potency": "inconclusive: 3.55 µM [inhibitor, full curve]"}, {"molecule": "O=C(Nc1cc(F)ccc1F)N1CCC(CN2CCOCC2)CC1", "Potency": "inactive"}, {"molecule": "COc1cccc(C(=O)NNC(=O)Cc2csc(N)n2)c1", "Potency": "inactive"}, {"molecule": "Cc1oc(C)c2c(=O)ccc3c(c12)OC(N)=C(C#N)C3c1ccccc1Cl", "note": "(stereo not given)", "Potency": "inconclusive: 28.2 µM [inhibitor, single point]"}, {"molecule": "CCOC(=O)c1ccc(NC(=S)NCCC2=CCCCC2)cc1", "Potency": "inactive"}, {"molecule": "N#Cc1ccc(-c2cccs2)nc1SCc1c(F)cccc1Cl", "Potency": "inconclusive: 28.2 µM [inhibitor, partial curve]"}, {"molecule": "O=C(N/N=C/c1cccc(C(F)(F)F)c1)c1cc2c(s1)-c1ccccc1CC2", "Potency": "inconclusive: 11.2 µM [inhibitor, partial curve]"}, {"molecule": "CCOc1cc(C)c(-c2onc(C(F)(F)F)c2-c2csc(C)n2)c(O)c1", "Potency": "inconclusive: 28.2 µM [inhibitor, partial curve]"}, {"molecule": "COc1ccc(/C=N/c2c(-c3ccco3)nc3ccccn23)cc1OC", "Potency": "inconclusive: 31.6 µM [inhibitor, single point]"}, {"molecule": "CN(CC(=O)NCc1ccco1)S(=O)(=O)c1ccc2c(c1)n(C)c(=O)c(=O)n2C", "Potency": "inconclusive: 14.1 µM [inhibitor, partial curve]"}, {"molecule": "Cc1cc(N2C(=O)C=CC2=O)c([N+](=O)[O-])cc1C", "Potency": "inconclusive: 0.316 µM [activator, full curve, poor fit]"}, {"molecule": "Nn1c(Nc2ccccc2)nc2sc3c(c2c1=O)CCCC3", "Potency": "inconclusive: 31.6 µM [inhibitor, single point]"}, {"molecule": "COCCN=c1scc(-c2ccco2)n1/N=C/c1ccc(O)c(O)c1O", "Potency": "active: 25.1 µM"}, {"molecule": "O=C(Cc1ccc(S(=O)(=O)N2CCCCC2)s1)Nc1ccc(F)c(F)c1", "Potency": "inconclusive: 39.8 µM [inhibitor, single point]"}, {"molecule": "O=C(c1ccc(C(F)(F)F)cc1)N1CCC(c2noc(-c3ccc(S(=O)(=O)N4CCCC4)cc3)n2)CC1", "Potency": "inactive"}, {"molecule": "COC(=O)[C@@H]1CC[C@H](C)[C@@H](c2ccc(C)cc2)N1C(=O)c1ccc(/C=N\\O[C@@H](C)c2cn([C@H]3COC[C@H]3O)nn2)cc1", "Potency": "inconclusive: 0.0794 µM [inhibitor, partial curve, poor fit]"}, {"molecule": "COc1ccc(C2CC2C(=O)c2ccccn2)cc1", "note": "(stereo not given)", "Potency": "inconclusive: 0.0891 µM [inhibitor, full curve, poor fit]"}, {"molecule": "O=C1O/C(=C/c2ccccc2)N=C1c1ccccc1", "Potency": "inconclusive: 6.31 µM [activator, partial curve]"}, {"molecule": "CCOC(=O)c1ccc(NC(=O)Cn2nc(SC)c(S(=O)(=O)c3ccc(Cl)cc3)c2N)cc1", "Potency": "active: 12.6 µM"}, {"molecule": "COc1ccccc1-c1ccc(SCc2ccc(F)cc2)nn1", "Potency": "inactive"}, {"molecule": "Cc1ccc(Cl)cc1Nc1nc2ccccc2c2nncn12", "Potency": "inactive"}, {"molecule": "Cc1ccsc1CCN1C(=O)N(c2ccccc2)C(=O)C1CC(=O)Nc1ccc(F)cc1", "note": "(stereo not given)", "Potency": "inconclusive: 31.6 µM [inhibitor, single point]"}, {"molecule": "COc1ccc(OC)c(-n2nnc3c(sc4nc(C)c(Br)c(C)c43)c2=O)c1", "Potency": "inconclusive: 2.51 µM [inhibitor, full curve, poor fit]"}, {"molecule": "Cc1nc(C)c(-c2ccc(SCC(=O)Nc3ccc(Cl)c(Cl)c3)nn2)s1", "Potency": "inconclusive: 7.94 µM [inhibitor, full curve]"}, {"molecule": "CC1CC2c3cccc(C(=O)O)c3C(=O)N2c2ccc(Cl)cc21", "note": "(stereo not given)", "Potency": "inconclusive: 8.91 µM [inhibitor, single point]"}, {"molecule": "COc1ccccc1N(Cc1cc2cccc(C)c2[nH]c1=O)C(=O)C(C)C", "Potency": "inconclusive: 8.91 µM [inhibitor, single point]"}, {"molecule": "CCOC(=O)c1c(C(F)(F)C(F)(F)C(F)(F)C(F)(F)F)n[nH]c1C", "Potency": "active: 14.1 µM"}, {"molecule": "Nc1nonc1N/N=C\\c1ccccc1", "Potency": "inactive"}, {"molecule": "COC(=O)C1(C(=O)OC)C/C=C\\C/C=C\\c2ccccc2[C@@H]1C[N+](=O)[O-]", "Potency": "inconclusive: 39.8 µM [inhibitor, single point]"}, {"molecule": "CCOC(=O)Cn1cc(C#N)c2ccccc21", "Potency": "inconclusive: 44.7 µM [inhibitor, single point]"}, {"molecule": "O=c1cc(CO)oc(C(Nc2cccc(C(F)(F)F)c2)c2ccccn2)c1O", "note": "(stereo not given)", "Potency": "inconclusive: 28.2 µM [inhibitor, partial curve]"}, {"molecule": "CC(C)(C)C(=O)Nc1ccc(S(=O)(=O)c2ccc(NC(=O)C(C)(C)C)cc2)cc1", "Potency": "inconclusive: 0.891 µM [inhibitor, full curve, poor fit]"}, {"molecule": "CCCCC(=O)Nc1cc(C)c(O)c(-c2nc3ncccc3o2)c1", "Potency": "inactive"}, {"molecule": "O=C(c1cccs1)c1no[n+]([O-])c1C(=O)c1cccs1", "Potency": "inconclusive: 35.5 µM [inhibitor, single point]"}, {"molecule": "CC1(O)/C=C\\C=C(\\CO)C2CC(C)(C)C2(O)CC1", "note": "(stereo not given)", "Potency": "inactive"}, {"molecule": "OC(CNCC(c1ccco1)N1CCCCC1)c1ccccc1", "note": "(stereo not given)", "Potency": "inactive"}, {"molecule": "Cc1ccc(-n2c(=O)c3c(c4cc(C)ccc4n3C)n(CC(=O)Nc3c(C)cccc3C)c2=O)cc1", "Potency": "inactive"}, {"molecule": "O=C1/C(=C/c2ccco2)Cc2ccccc21", "Potency": "inactive"}, {"molecule": "NS(=O)(=O)c1ccc(N=C2C(=O)Nc3ccccc32)cc1", "Potency": "inconclusive: 44.7 µM [inhibitor, single point]"}, {"molecule": "Cn1c(C(=O)NCc2cccs2)cc2oc3ccccc3c21", "Potency": "inconclusive: 28.2 µM [inhibitor, single point]"}, {"molecule": "CNC(=S)N(Cc1ccco1)Cc1cc2cc(OC)ccc2[nH]c1=O", "activity, negative = inhibition": "inactive: -13.8% [at 2.34 µM]"}, {"molecule": "Cc1nc(C)c(CCNC(=O)c2ccccc2)s1", "Potency": "inactive"}, {"molecule": "O=C(NCCC(c1ccccc1)c1ccccc1)c1ccc(Br)o1", "Potency": "inactive"}, {"molecule": "Cn1c(N/N=C/c2cc3ccccc3nc2Cl)nc2ccccc21", "Potency": "inconclusive: 0.126 µM [activator, full curve, poor fit]"}, {"molecule": "CCn1c(-c2csc3ccccc23)n[nH]c1=S", "Potency": "inactive"}, {"molecule": "COc1ccccc1CNC(=S)Nc1ccc2nc(N3CCN(C)CC3)cc(C)c2c1", "Potency": "inconclusive: 14.1 µM [activator, partial curve]"}, {"molecule": "N#Cc1cc2c(nc1SCC1COc3ccccc3O1)CCC2", "note": "(stereo not given)", "Potency": "inconclusive: 2.82 µM [inhibitor, single point]"}, {"molecule": "COc1cc(NC(=O)c2cc3ccccc3cc2O)c(OC)cc1Cl", "Potency": "inactive"}, {"molecule": "COc1ccc(CNS(=O)(=O)c2cc3c(cc2C)n(C)c(=O)c(=O)n3C)cc1", "Potency": "inactive"}, {"molecule": "O=C(O)CCC(=O)Nc1sc2c(c1C(=O)Nc1ccccc1)CCCCC2", "Potency": "inactive and inconclusive: 25.1 µM [inhibitor, partial curve]"}, {"molecule": "O=[N+]([O-])c1c(NCCCO)cc(SCc2ccco2)c2nonc12", "Potency": "inconclusive: 0.891 µM [inhibitor, full curve, poor fit]"}, {"molecule": "Cc1c(C(=O)OC(C)C)sc(NC(=O)C2c3ccccc3Oc3ccccc32)c1C(=O)OC(C)C", "Potency": "inconclusive: 7.08 µM [inhibitor, partial curve]"}, {"molecule": "Cc1ccc(Sc2c(C)nn(C(=O)c3ccc(Cl)cc3)c2C)cc1", "Potency": "inactive"}, {"molecule": "O=C1c2ccccc2C(=O)N1c1cccc(-c2csc(Nc3ccc4c(c3)OCO4)n2)c1", "Potency": "inconclusive: 39.8 µM [inhibitor, single point]"}, {"molecule": "O=C(NCc1cccnc1)c1nc(-c2ccc(C(F)(F)F)cc2)no1", "Potency": "inconclusive: 0.282 µM [inhibitor, full curve, poor fit]"}, {"molecule": "Cc1c(/C=N/NC(=O)CNc2ccccc2)c2ccccn2c1C(=O)c1ccc(Cl)cc1", "Potency": "inconclusive: 0.316 µM [activator, full curve]"}, {"molecule": "CCN1CCN(Cc2ccc(NC(=O)c3ccc(C)c(NC(=O)c4cc(-c5ccc(Br)cc5)n[nH]4)c3)cc2C(F)(F)F)CC1", "Potency": "inconclusive: 20 µM [inhibitor, partial curve]"}, {"molecule": "O=C(Cn1c(=O)n(Cc2ccccc2)c(=O)c2sc3ccccc3c21)Nc1ccccc1F", "Potency": "active: 28.2 µM"}, {"molecule": "COC(=O)c1ccc(NC(=S)NCCC2=CCCCC2)cc1", "Potency": "inconclusive: 39.8 µM [inhibitor, single point]"}, {"molecule": "COc1ccc(C(=O)NNC(=O)C2CCCO2)cc1", "note": "(stereo not given)", "Potency": "inactive"}, {"molecule": "O=C1NN(c2ccc(F)cc2)C(=O)/C1=C\\C=C\\c1ccco1", "Potency": "inconclusive: 28.2 µM [inhibitor, single point]"}, {"molecule": "CCOC(=O)N1CCC(c2cc(=O)n3[nH]cc(C(=O)OC)c3n2)CC1", "Potency": "inactive"}, {"molecule": "Cc1cc(C)cc(NC(=O)Nc2ccc3nc(N4CCN(C)CC4)cc(C)c3c2)c1", "Potency": "inconclusive: 2.24 µM [activator, partial curve, poor fit]"}, {"molecule": "O=C(NCCCc1ccccc1)c1ccc(Br)o1", "Potency": "inactive"}, {"molecule": "COCCNC(=O)C(=O)NNS(=O)(=O)c1ccc2ccccc2c1", "Potency": "inactive"}, {"molecule": "N#CCC(=O)Nc1ccc(C(=O)OCC(=O)Nc2cccc(C(F)(F)F)c2)cc1", "Potency": "inconclusive: 31.6 µM [inhibitor, single point]"}]}]}
